# Measurements as given in publication PMC4336329 (PLoS ONE, 2015).
# Screen size: about 310,000 compounds; about 14,000 (4.5%) showed an effect of 50% or more. Effects have a minus sign here. The list shows a part of the results.
# Target: human ether-à-go-go-related gene (hERG) potassium channel (human, UniProt Q12809)
# Assay: primary screen, population patch clamp on CHO cells stably expressing hERG
# 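Note: peak tail current of the secondary pulse compared with the same well before compound.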
# human ether-à-go-go-related gene (hERG) potassium channel, sequence (Q12809 whole entry, looked up): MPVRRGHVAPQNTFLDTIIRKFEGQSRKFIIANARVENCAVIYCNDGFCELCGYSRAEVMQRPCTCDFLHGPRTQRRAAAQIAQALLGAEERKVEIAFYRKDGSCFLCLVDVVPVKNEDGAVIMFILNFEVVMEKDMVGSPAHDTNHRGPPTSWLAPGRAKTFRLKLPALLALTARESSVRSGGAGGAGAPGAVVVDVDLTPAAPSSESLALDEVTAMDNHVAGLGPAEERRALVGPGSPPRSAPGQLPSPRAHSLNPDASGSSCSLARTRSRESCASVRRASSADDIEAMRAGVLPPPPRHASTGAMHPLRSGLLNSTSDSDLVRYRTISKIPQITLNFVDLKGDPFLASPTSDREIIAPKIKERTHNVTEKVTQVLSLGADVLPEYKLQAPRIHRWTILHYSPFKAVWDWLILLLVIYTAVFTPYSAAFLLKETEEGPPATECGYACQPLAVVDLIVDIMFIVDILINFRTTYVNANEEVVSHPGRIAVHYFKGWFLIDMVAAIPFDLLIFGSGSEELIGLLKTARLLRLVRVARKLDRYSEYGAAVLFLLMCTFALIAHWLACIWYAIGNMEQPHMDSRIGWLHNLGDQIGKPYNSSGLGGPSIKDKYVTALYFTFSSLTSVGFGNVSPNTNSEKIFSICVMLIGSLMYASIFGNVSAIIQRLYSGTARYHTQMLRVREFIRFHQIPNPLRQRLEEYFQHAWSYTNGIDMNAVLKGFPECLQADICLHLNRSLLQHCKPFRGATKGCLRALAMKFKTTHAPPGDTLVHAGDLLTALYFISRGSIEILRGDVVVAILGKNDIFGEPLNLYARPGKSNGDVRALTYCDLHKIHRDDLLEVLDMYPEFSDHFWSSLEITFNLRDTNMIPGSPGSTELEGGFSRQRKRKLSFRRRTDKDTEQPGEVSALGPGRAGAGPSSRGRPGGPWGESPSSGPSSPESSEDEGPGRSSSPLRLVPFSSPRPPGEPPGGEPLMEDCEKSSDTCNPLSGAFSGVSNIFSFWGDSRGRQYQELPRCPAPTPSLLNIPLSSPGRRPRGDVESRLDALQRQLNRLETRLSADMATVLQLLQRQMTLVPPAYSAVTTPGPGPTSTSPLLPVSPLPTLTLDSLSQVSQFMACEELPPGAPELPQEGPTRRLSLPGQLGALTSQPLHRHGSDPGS
row,SMILES,"hERG current change (%, negative = inhibition) at 10uM [%]"
1,CCCN(Cc1cc2ccc(C)cc2[nH]c1=O)S(=O)(=O)c1ccccc1,6.34
2,CC(C)Cc1nnc(NC(=O)CCC(=O)NC2CCCCC2)s1,5.17
3,CCN1CCC(O)(C#Cc2ccccc2)CC1,9.73
4,CC(O)Cn1nc([N+](=O)[O-])nc1N (stereo not drawn),11.8
5,CCOC(=O)C1CCN(S(=O)(=O)c2ccc3c(c2)N(C)C(=O)CC(=O)N3C)CC1,-11.7
6,CC(=O)Nc1ccc2nc(NC(=O)COc3ccccc3)sc2c1,21.5
7,COc1ccc(-c2cnnc(N/N=C/c3ccc(O)c(OC)c3)n2)cc1,-50.1
8,Cc1ccc(CS(=O)(=O)CCC(=O)NCCCN2CCCC2)cc1,13.1
9,O=C(Nc1ccc(Cl)cc1C(=O)NCc1cccnc1)c1ccco1,-4.78
10,COCCCn1c(SCC(=O)Nc2cccc(C(=O)OC)c2)nnc1-c1ccncc1,-15.8
11,CCc1nnc(NC(=O)CSc2nnc(CNC(=O)c3ccc(OC)c(OC)c3)o2)s1,-0.109
12,Cc1c(C(=O)Nc2nc3ccccc3[nH]2)oc2ccccc12,-13
13,COc1ccc(S(=O)(=O)N2CCCCC2)cc1NC(=O)CN1CCN(C(C)=O)CC1,5.51
14,C#CCOCCOCCOCCNc1nc(N2CCN(C(=O)[C@H]([C@@H](C)CC)n3cc(CCCC[NH3+])nn3)CC2)nc(N2CCN(C(=O)[C@H]([C@@H](C)CC)n3cc(CCC[NH+]=C(N)N)nn3)CC2)n1.[Cl-],14.1
15,Cc1noc(C)c1COC(=O)c1cc2c(C)nn(-c3ccc(F)cc3)c2s1,9.42
16,CC(C)SCCCOc1ccc(C(C)(C)C)cc1,13
17,O=C(CSc1nc2ccccc2c(=O)n1Cc1ccc(F)cc1)NCc1cccs1,-14
18,O=Cc1ccccc1OCCCOc1cccc2cccnc12,-4.59
19,Cn1c(SCc2ccc(F)cc2)nnc1-c1ccccn1,-1.53
20,O=C1OC(C(=O)Nc2nccs2)Cc2ccccc21 (stereo not drawn),12.7
21,O=C1C2C3C=CC(CC3)C2C(=O)N1c1ccccc1F (stereo not drawn),21.3

row,SMILES,"hERG current change (%, negative = inhibition) at 10uM [%]"
1,O=[N+]([O-])c1cccnc1N1CCCCC1,5.7
2,O=C(c1c(F)cccc1F)N1CCC(O)(c2cccnc2)CC1,-7.47
3,CC(C)Nc1cc(C(F)(F)F)nc(-c2ccccn2)n1,-6.66
4,CC[C@H](C)C(C(=O)N1CCN(C(=O)OC(C)(C)C)CC1)n1cc(C(Cc2ccc(O)cc2)NC(=O)OC(C)(C)C)nn1 (stereo partly drawn),2.29
5,COc1ccccc1NC(=O)C(C)N1CCN(C/C=C/c2ccccc2)CC1 (stereo not drawn),-74.5
6,O=C(NS(=O)(=O)Oc1ccc(F)cc1F)OC[C@@H]1CCCN2CCCCC12 (stereo partly drawn),17.9
7,CCCOC1CCCN(C(=O)CCc2nnc(-c3ccc4c(c3)OCO4)o2)C1 (stereo not drawn),16
8,CC(NC(=O)c1ccco1)c1nc(-c2ccccc2Cl)no1 (stereo not drawn),3.9
9,CN(C(=O)COC(=O)c1cccc(S(=O)(=O)N(C)c2ccccc2)c1)C1CCCCC1,-22.9
10,COc1cc(OC)c(C2=NOC(C(=O)N3CCc4ccccc4C3)C2)cc1Cl (stereo not drawn),-34.3
11,O=S(=O)(c1ccc(Br)cc1)N1CCN=C1SCc1cccc(F)c1,8.08
12,O=c1[nH]c(=S)n(C2CC2)c(O)c1C=NCCN1CCOCC1,15.5
13,CCOc1cc(N2CCOCC2)c(OCC)cc1NC(=O)COC(=O)[C@H](Cc1c[nH]c2ccccc12)NC(C)=O,-6.43
14,COC(=O)c1cccc(NC(=O)/C=C/c2cccc([N+](=O)[O-])c2)c1,3.45
15,CCOc1ccc(CN2CCN(Cc3cccn3-c3cccnc3)CC2CCO)cc1 (stereo not drawn),-84.1
16,O=C(N/N=C/c1ccc[nH]1)c1cc2ccccc2cc1O,13.1
17,O=C1C2C3C=CC(C3)C2C(=O)N1c1ccc2ccccc2n1 (stereo not drawn),1.32
18,COC(=O)CCCCCN1C(=O)NC(c2ccc(-c3ccccc3)cc2)C(C(=O)OCc2ccccc2)=C1C (stereo not drawn),4.69
19,CC1CCC2(CC1)NC(=O)N(CC(=O)Nc1ccc3c(c1)OCCCO3)C2=O (stereo not drawn),-4.52
20,CC(C)[C@@H](C(=O)NC1CC1)N1C(=O)N2CCc3c([nH]c4ccccc34)[C@@]2(C)C1=O,-6.45
21,C/C(=N\NC(=O)COc1ccc([N+](=O)[O-])cc1)C(C)(C)C,-8.02

row,SMILES,"hERG current change (%, negative = inhibition) at 10uM [%]"
1,Cc1ccccc1[N+](=O)[O-],7.56
2,O=C(c1cnc(Cl)c(Cl)c1)N1CCN(S(=O)(=O)c2ccc(F)cc2)CC1,-23.9
3,CCCCOc1ccc(S(=O)(=O)Nc2cccnc2)cc1,-7.43
4,Cn1nc(C(C)(C)C)c(NC(=O)c2ccc(F)cc2)c1C(C)(C)C,2.08
5,Cc1nn(C)c(C)c1S(=O)(=O)N(CC(=O)Nc1nccs1)c1ccc(C(C)C)cc1,8.37
6,Cc1ccc(S(=O)(=O)N2CCN(c3ccc([N+](=O)[O-])cn3)CC2)cc1,4.2
7,CCOc1ccc(Cn2c(C)nc([N+](=O)[O-])c2SCC(O)CCl)cc1[N+](=O)[O-] (stereo not drawn),-68.2
8,COc1ccc(Br)cc1/C=N/NC(=O)C[n+]1ccccc1.[Cl-],25.5
9,CCCCNC(=O)C1CCC(CNc2c(N3CCC(C)CC3)c(=O)c2=O)CC1 (stereo not drawn),10.4
10,COc1cc(NC(=O)CSc2nnc(-c3ccncc3)n2C2CCCCC2)ccc1NC(=O)c1ccco1,-6.13
11,CC(C)OCCCn1c(=N)c(C(N)=S)cc2c(=O)n3ccccc3nc21,-81.5
12,CCCCN(C(=O)COC(=O)c1ccc(C=O)cc1)c1c(N)n(CCC)c(=O)[nH]c1=O,3.95
13,C#CCOCCOCCOCCNc1nc(N2CCN(C(=O)[C@H]([C@@H](C)CC)n3cc([C@@H](N)Cc4ccc(O)cc4)nn3)CC2)nc(N2CCN(C(=O)[C@H](CCCCN)n3cc([C@@H](N)CC(C)C)nn3)CC2)n1.Cl,2.93
14,CCN(CC(=O)Nc1ccc(OC)cc1)C(=O)c1ccc2c(=O)n3c(nc2c1)CCC3,9.77
15,CCOC(=O)C1(CCOC)CCN(C(=O)Cc2ccsc2)CC1,5.55
16,Cc1ccc(N/N=C(\C#N)C(=N)N2CCCCCC2)cc1,12.7
17,CC(=O)NC1CCN(C(=O)N2CCCC2)CC1,-14.7
18,Cc1cc(-n2c(SCCC#N)nnc2-c2cccnc2)ccc1Cl,-23
19,CCc1ccc(Nc2nc(N)nc(CSc3nc4ccccc4s3)n2)cc1,9.26
20,O=C(NCCC(=O)N1CCC2(CC1)NCCc1[nH]cnc12)c1ccc(Br)cc1,14.2
21,CN(C)S(=O)(=O)c1ccc(N2CCCC2)c(C(=O)N2CCN(S(=O)(=O)c3ccc(F)cc3)CC2)c1,-31.9

row,SMILES,"hERG current change (%, negative = inhibition) at 10uM [%]"
1,CC(C)(C)Nc1nc(OCC#N)nc(N2CCCCC2)n1,-37.5
2,CC(NC(=O)C1CCCN(S(=O)(=O)c2ccc(-n3cnnn3)cc2)C1)c1ccc(F)cc1 (stereo not drawn),-7.46
3,CN(CC(=O)NCc1ccccc1Cl)CC(=O)Nc1cccc(F)c1,-17.8
4,CC(C)C(NC(=O)c1ccco1)C(=O)NC1CCCCCC1 (stereo not drawn),14.6
5,CN(CC(=O)NC1CCCCCCC1)S(=O)(=O)c1cccc2cccnc12,-28.8
6,CN(C(=O)c1ccc(-c2nn(C)c(=O)c3ccccc23)cc1)C1CCCCC1,-3.13
7,Cc1oc(-c2ccccc2F)nc1CN1CCC(C(=O)NC2CC2)CC1,-34.3
8,Cc1ccc(S(=O)(=O)N2Cc3ccccc3CC2C(=O)Nn2cnnc2)cc1 (stereo not drawn),-9.56
9,O=C(Nc1nc(-c2ccccc2)cs1)c1ccc(Br)o1,-9.78
10,O=C(C1CCN(S(=O)(=O)c2ccc(Cl)cc2)CC1)N1CCOCC1,-6.76
11,CN(C)S(=O)(=O)c1cc(NC(=O)C2=COCCO2)ccc1Cl,-3.35
12,CCOC(=O)/C(=N\Nc1ccccc1)P(=O)(c1ccccc1)c1ccccc1,-34.6
13,Cl.NCCNCCNCCN,15.5
14,CC(NC(=O)c1ccc(-c2cc(C(F)(F)F)ccc2Cl)o1)c1ccccc1 (stereo not drawn),12.9
15,CN(c1ncc(C(F)(F)F)cc1Cl)n1cc(C(N)=O)c2ccccc2c1=O,-0.468
16,CCCCc1nnc(NC(=O)CSc2nc(O)c(Cc3ccccc3)c(=O)[nH]2)s1,29.8
17,CCc1ccc(/C=C2/Sc3ccccc3N(CC(=O)NCCCOC)C2=O)cc1,-13.7
18,COc1ccc(Cl)cc1NC(=O)CN1CCC(n2nnc3cc(F)ccc32)CC1,-7.93
19,CCOc1cccc2sc(N(CCN(C)C)C(=O)CCS(=O)(=O)c3ccccc3)nc12.Cl,-23.5
20,CCN(CC)S(=O)(=O)c1ccc2[nH]cc(C(=O)NCCN3CCCCCC3)c(=O)c2c1,-6.35
21,CN1C/C(=C/c2cccnc2)C(=O)/C(=C/c2cccnc2)C1,-49.5
